We go through 26 compounds from PubChem BioAssay AID463173 (ICCB-Longwood Screening Facility, Harvard Medical School, 2010).

Screen size: about 52,000 compounds; about 4,300 (8.3%) were called active. Cut-off read from the data, not from the text of the source: active = survival mostly below about 52% (no sharp cut-off); inactive = mostly above about 56%. Some of the results follow.

This test deals with DeltatarO mutant. The test is described as follows: S. aureus survival, RN4220 and DeltatarO strains – OD600, teichoic acid synthesis inhibitors, primary screen (AID 463173). The settings on record: S. aureus RN4220 wild type/DeltatarO growth, OD600, 18 h, stronger effect = lower value, screened at 18.75 µg/mL (by protocol).
Regarding `O=C(CSc1cn(CCNC(=O)c2c(F)cccc2F)c2ccccc12)Nc1ccc2c(c1)OCCO2`, the survival is inactive: 83%. As for `CCOc1ccccc1NC(=O)Cn1cnc2onc(-c3ccc(F)cc3)c2c1=O`, the survival is inactive: 87%. Regarding `O=C(OCc1cc(=O)n2nc(C3CC3)sc2n1)c1ccc(F)cc1`, the survival is inactive: 89%. The result for `Cc1cc(C)cc(NS(=O)(=O)c2ccc3[nH]cc(C(=O)N4CCCC4)c(=O)c3c2)c1` reads inactive: 90%; that for `COc1ccc(-n2c(=O)c3ccc(C(=O)NCc4ccc(C)cc4)cc3n(CC(=O)Nc3ccc(F)cc3)c2=O)cc1`, inactive: 66%; that for `N#C/C(=C\c1ccc(Cl)cc1)c1nc2ccccc2[nH]1`, inactive: 57%.

On to `Cc1cccc(NC(=O)CSc2nc3c([nH]c4ccccc43)c(=O)n2C)c1C`, for which the survival was inactive: 80%. The result for `CCOc1ccc(NC(=O)c2ccc(-c3nc(COc4ccccc4)c(C)o3)cc2)cc1` reads inactive: 80%; that for `O=C(NCCc1csc(-c2cccc(F)c2)n1)c1cccs1`, inactive: 79%; that for `O=C(Cc1ccccc1)Nc1sc2c(c1C(=O)Nc1ccc(Cl)cc1)CCCC2`, inactive: 47%. Turning to `Cc1ccc(-c2noc(CN3C(C)CCCC3C)n2)cc1` (stereo unspecified), the survival was inactive: 80%.

Consider `Cc1cc(C)cc(OC(=O)c2snnc2C)c1`, for which the survival was inactive: 94%. With `COC1(OC)CCCc2c1no[n+]2[O-]`, the survival is inactive: 81%. With `COc1ccccc1CNC(=O)Cn1ncc2c3ccccc3n(Cc3ccccc3C)c2c1=O`, the survival was inactive: 66%. On to `CC(NC(=O)Nc1ccccc1C(F)(F)F)c1c(-n2cccc2)sc2c1CCCC2` (stereo unspecified), for which the survival was inactive: 104%.

With `COc1ccccc1NC(=O)CSc1oc(-c2cccs2)nc1S(=O)(=O)c1ccc(Br)cc1`, the survival was inactive: 68%.

For `CCOC(=O)c1ccc(NS(=O)(=O)c2ccc(Br)s2)cc1`, the survival is active: 38%.

In the case of `CN(C(=O)CSc1nc2c(c(=O)[nH]1)CCCC2)c1ccccc1`, the survival was inactive: 61%. In the case of `COc1ccc(-c2nc(SCC(=O)Nc3ccc4c(c3)OCO4)c(-c3ccc(OC)cc3)[nH]2)cc1` it was inactive: 81%; in that of `CCOc1ccc(S(=O)(=O)N2CCN(c3c(C)cccc3C)CC2)c2ccccc12`, inactive: 57%; in that of `CCOc1ccccc1NC(=O)C1CCN(S(=O)(=O)c2ccccc2)CC1`, inactive: 49%. In the case of `Cc1cc(Cl)c2cccc(Br)c2n1` it was inactive: 110%; in that of `Cc1ccc(C(=O)ON=C2CCN(C)CC2)cc1`, inactive: 107%; in that of `O=C(NC(Nc1ncccn1)C(=O)c1ccccc1)c1ccccc1` (stereo unspecified), inactive: 107%. `COc1cc(NC(=O)Cn2ncc3c([nH]c4ccc(C)cc43)c2=O)cc(OC)c1OC`: the survival was inactive: 86%. For the compound `COc1cc(C(=O)Nc2ccc3oc(-c4ccccc4)nc3c2)cc(OC)c1OC`, the survival is inactive: 51%.
